The structures appear in SMILES notation. The campaign covered roughly 150,000 compounds. About 540 (0.36%) showed an effect of 50% or more. The list shows a part of the results.

One may read the % Inhibition as the relative decrease from the control value, in per cent.

The test system of the assay is Plasmodium falciparum. In words: Primary screen in NF54 nanoGlo assay, in single point, at 2uM, 72h; a lower Z score goes with more inhibition. The assay is classed as functional, Erythrocyte. The note with it: timepoint 72 hour.
With `Cc1nc2ccc(CNC(=O)N3CCC(c4nnc(CO)n4C)CC3)cc2[nH]1`, the “% Inhibition” value is listed as 1% and the Z score is recorded as -0.23.

On to `O=C(NCCN1CC[C@H](N2CCOCC2)C1=O)c1ccccc1`, for which the “% Inhibition” value was determined as 29% and the Z score is reported as -3.52.

On to `Cc1cc(OCC(F)(F)C(F)F)nc(N)n1`, for which the “% Inhibition” value was 5% and the Z score is recorded as -0.54.

For `COc1cc(Br)ccc1CN=C(N)N1CCOCC1`, the “% Inhibition” value is reported as -11% and the Z score is 0.96.

`CCOc1c(OC)cccc1-c1nc2c([nH]1)CCCNC2=O`: the “% Inhibition” value is reported as 4% and the Z score is listed as -0.75.

On to `CCOc1ccc(CNC(=O)c2cccc(NC(=O)c3nsc4ccccc34)c2)cc1OC`, for which the “% Inhibition” value came to 4% and the Z score was -0.68.

On to `CCn1cc(CN(C)C(=O)Nc2ccc3c(c2)CCC3)cn1`, for which the “% Inhibition” value was -4% and the Z score amounted to 0.61.

On to `COc1ccccc1[C@@H]1C[C@H]1C(=O)N1CCCC(c2nc(C)no2)C1` (stereo partly specified), for which the “% Inhibition” value is on record as 4% and the Z score is reported as -0.57.

For the compound `CCC1=NO[C@@H](CNCC(=O)Nc2ccc(Cl)c(OC)c2)C1`, the “% Inhibition” value was 7% and the Z score is reported as -0.91.

On to `CN1CCCN(C(=O)C2=Cc3ccccc3OC2)CC1`, for which the “% Inhibition” value is listed as 3% and the Z score was -0.34.

Regarding `C[C@H](NCc1cnn(C(C)(C)C)c1)c1cn[nH]c1`, the “% Inhibition” value is given as 2% and the Z score was -0.32.

For the compound `Cc1nnc(-c2cccc3ccccc23)o1`, the “% Inhibition” value is -2% and the Z score is given as 0.28.

For `O=C(Cc1ccccc1F)Nc1cc(S(=O)(=O)N2CCOCC2)ccc1Oc1ccc(F)cc1`, the “% Inhibition” value is on record as -10% and the Z score is recorded as 1.83.

Turning to `CC(=O)NCC(=O)Nc1cc(C2CCCC2)nn1C`, the “% Inhibition” value is -1% and the Z score was found to be 0.08.

Consider `O=C(COc1ccccc1)N1CC[C@H](N(CCCN2CCOCC2)C(=O)C2CCC2)C1`, for which the “% Inhibition” value was -6% and the Z score is listed as 0.92.

`CC(C)(C)OC(=O)N1CC2(CCCCCN2C(=O)c2cncnc2)C1`: the “% Inhibition” value was -5% and the Z score is on record as 0.66.

As for `COc1cccc(C(=O)N2CCCN(c3cc(-c4ccc(Cl)cc4)n[nH]3)CC2)c1OC`, the “% Inhibition” value is recorded as 9% and the Z score is on record as -0.9.

Take `Cc1ccc(CN2CCC3(CC2)CN(c2ncccn2)C[C@@H]3CO)cc1C`: the “% Inhibition” value is given as -6% and the Z score is recorded as 0.67.

For `CN(Cc1ccc(-n2cccn2)cc1)C(=O)Cc1cccc(O)c1`, the “% Inhibition” value is -10% and the Z score amounted to 0.89.

On to `Nc1ccc(-c2nnc(-c3ccccn3)[nH]2)cc1`, for which the “% Inhibition” value stood at 2% and the Z score is -0.33.

`C#CCN(CC1CC1)C(=O)c1ccc2c(=O)n3c(nc2c1)CCCCCC3`: the “% Inhibition” value is -9% and the Z score turned out to be 0.96.

As to `Cc1ncccc1C(=O)OC[C@H]1CCCCO1`, the “% Inhibition” value is listed as -12% and the Z score came out at 1.71.

With `Cc1[nH]ncc1C(=O)NC1CCCC(F)C1` (stereo unspecified), the “% Inhibition” value is on record as 2% and the Z score was -0.28.

In the case of `Nc1ccc(C(=O)N2C[C@@H]3CCC[C@H](C2)C(=O)N3)cn1`, the “% Inhibition” value is listed as -2% and the Z score is listed as 0.24.

`Cc1ccc([C@H]2CC(=O)Nc3c(S(=O)(=O)c4ccc(Cl)cc4)csc32)cc1`: the “% Inhibition” value is listed as -12% and the Z score is given as 1.25.

On to `Cn1cc(-c2ccc(CN3CCCC3)cn2)cn1`, for which the “% Inhibition” value came out at 1% and the Z score was -0.24.

As for `CCOc1ccccc1CNc1cc(C(F)F)ncn1`, the “% Inhibition” value is on record as -10% and the Z score was 1.75.

With `COCCN1CCC[C@H](C(=O)N2CCc3[nH]c(-c4ccccc4)nc3C2)C1`, the “% Inhibition” value is on record as 11% and the Z score is -2.02.

For the compound `Cc1csc(CNC(=O)c2ccoc2C)n1`, the “% Inhibition” value came to 4% and the Z score is on record as -0.82.

Consider `Nc1c2c(-c3cccc(F)c3)nc(NCCN3CCCC3)nc2nn1Cc1ccccc1`, for which the “% Inhibition” value is given as -14% and the Z score was 1.8.

Regarding `O=C(NCCc1nc2ccccc2[nH]1)C(F)(F)c1ccc(F)cc1`, the “% Inhibition” value is reported as 4% and the Z score is given as -0.36.

`C=CCCc1ccccc1NC(=O)N1C[C@H](C)C(=O)[C@@H](C)C1`: the “% Inhibition” value was -6% and the Z score is reported as 1.22.

`O=C(CCc1c[nH]c2ccccc12)N1CC(Cc2nncn2C2CCCC2)C1`: the “% Inhibition” value turned out to be 0% and the Z score is reported as 0.05.

Consider `CCN1CCC[C@@H]1CNc1cc(C(C)C)nc(C)n1`, for which the “% Inhibition” value was 9% and the Z score was -1.3.

Take `COc1cccc(CN2CCN(c3nc4ccccc4o3)C[C@@H]2CCO)c1`: the “% Inhibition” value worked out at 2% and the Z score was -0.29.

As for `O=c1ccccn1CCN1CCc2ccccc21`, the “% Inhibition” value is recorded as -14% and the Z score was found to be 1.44.

Regarding `Cc1cc(Cl)cc2cc(C(=O)N3CC(N4CCNC4=O)C3)[nH]c12`, the “% Inhibition” value came out at 19% and the Z score is -2.7.

As for `Cc1ccc(C(=O)NC[C@H](C)c2ccc(Br)cc2)nn1`, the “% Inhibition” value is recorded as -2% and the Z score was 0.23.

Regarding `N#CC1(CS(=O)(=O)N2CCOc3cc(O)ccc3C2)CCCC1`, the “% Inhibition” value is -9% and the Z score is reported as 1.31.

Regarding `CCc1ccc(C(=O)NC(CC)[C@H]2C[C@H](O)C2)[nH]1` (stereo partly specified), the “% Inhibition” value was determined as 2% and the Z score is recorded as -0.29.

For `O=C(NCC1CC12CC2)C1CCC(F)(F)C1` (stereo unspecified), the “% Inhibition” value is reported as -5% and the Z score amounted to 1.04.

With `Cc1cccc2nc(CN(C)C(=O)CCc3cn[nH]c3)[nH]c12`, the “% Inhibition” value is given as -21% and the Z score came to 1.83.

Consider `COc1cccc(N2CCN(c3nn(-c4ccccc4)nc3C#N)CC2)c1`, for which the “% Inhibition” value is listed as 6% and the Z score is recorded as -0.73.

The values are drawn from ChEMBL document CHEMBL4888484, “Replenishing the malaria drug discovery pipeline: Screening and hit evaluation of the MMV Hit Generation Library 1 (HGL1) against asexual blood stage Plasmodium falciparum ,using a nano luciferase reporter read-out” (2022).
